In PubChem BioAssay AID624417 (National Center for Advancing Translational Sciences (NCATS), 2012):
Values joined by “and” are separate entries in the source; they are usually repeats but may differ in a detail not shown here. Identical values can stand only once. Screen size: about 410,000 compounds; about 6,400 (1.6%) were called active. The shares of active, inactive and inconclusive entries below differ from those in the screen. Calls follow the shape of the dose curve; as a rule, active = well fitted inhibition curve with a large enough effect; inconclusive = small, poorly fitted or top-dose-only effect; inactive = no such curve, though single readings can be large or run the other way. A potency beside an inconclusive call is a rough fit, not a confirmed value.

Target: Glucagon-like peptide 1 receptor (Homo sapiens) (UniProt P43220)
Test: qHTS of GLP-1 Receptor Inverse Agonists (Inhibition Mode); also: nearly all actives have a fitted effect of over 55% in size
Details: HEK293 GLP-1R CRE-luciferase, luminescence, 24 h, GLP-1R form is constitutively active; activity change, negative = inhibition: at 38.3 µM (top of the series) unless noted
How it was run: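 HEK293 cells stably co-expressing a cAMP-responsive luciferase reporter and constitutively active GLP-1R were seeded, incubated 12 h, then exposed to compounds for 24 h at 37 C. Luminescence was read 12 min after detection reagent; inverse agonists lower signal.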
% is scaled to controls: 0 for no effect and ±100 for the full control effect; potency is read from the fitted curve at half-maximal effect; tags tell the direction and shape of the fitted curve.

Sequence of UniProt P43220 (P43220 whole entry, looked up): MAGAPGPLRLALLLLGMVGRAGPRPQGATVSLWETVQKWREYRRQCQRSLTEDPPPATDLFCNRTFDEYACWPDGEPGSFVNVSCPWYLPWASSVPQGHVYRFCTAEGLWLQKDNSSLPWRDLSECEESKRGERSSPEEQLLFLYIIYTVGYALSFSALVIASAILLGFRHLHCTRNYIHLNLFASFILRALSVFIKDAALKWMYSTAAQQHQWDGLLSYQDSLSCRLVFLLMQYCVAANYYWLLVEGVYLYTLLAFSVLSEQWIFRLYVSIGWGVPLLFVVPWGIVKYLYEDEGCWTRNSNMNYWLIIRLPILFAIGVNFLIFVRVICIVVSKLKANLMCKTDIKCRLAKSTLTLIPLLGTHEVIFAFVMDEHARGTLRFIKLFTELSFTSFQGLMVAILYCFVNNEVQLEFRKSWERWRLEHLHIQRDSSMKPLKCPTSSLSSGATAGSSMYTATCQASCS

Activity change, negative = inhibition, inactive:
Cc1sc(NC(=S)Nc2ccc(F)cc2)c(C(N)=O)c1C -2.74%
Cc1ccc(NC(=O)N2CCCC2C(=O)Nc2c(C)cc(C)cc2C)cc1 (stereo not given) -13.2%
COc1cc2ncc3c(-c4ccccc4)nn(CC(=O)NC4CCCCC4)c3c2cc1OC -3.42%
CCCS(=O)(=O)Nc1cccc(-c2cn3c(n2)SCC3)c1 -22.5%
Cc1nc(N2CCCC2)ncc1C(=O)NCc1ccc(F)cc1 5.72%
O=S(=O)(c1ccc(Br)cc1)c1nnn2c1nc(NCCc1ccccc1)c1sccc12 -4.45%
Cc1nc2ccc(S(=O)(=O)NC(C(=O)N3CCN(c4cccc(Cl)c4)CC3)C(C)C)cc2s1 (stereo not given) 11.7%
O=C(c1ccc2n[nH]nc2c1)N1CCN(c2ccc(C(F)(F)F)cn2)CC1 12.4%
CCc1ccc(C(=O)NC2=NC(c3cc(OC)ccc3OC)CC(=O)N2)cc1 (stereo not given) 18.5%

Potency, active:
Oc1ccc(Br)cc1CNc1cnc2ccccc2c1 11.2 µM
N=c1c2c(ncn1Cc1ccco1)Oc1c(ccc3ccccc13)C2c1ccccc1 (stereo not given) 3.98 µM
CCn1c(N2CCN(C(=O)C34CC5CC(CC(C5)C3)C4)CC2)nc2ccccc21 2 µM
CC12CCC=CC1=C(C=O)C1C2CCC2(C)C(O)CCC12 (stereo not given) 11.2 µM

Potency, inconclusive:
CCc1ccc(CN(C(=O)Nc2cccc(Cl)c2)c2ccccn2)cc1 11.2 µM [inhibitor, single point]
CCCC(O)(CCC)C(=O)NNc1ccc(C)cc1 1.78 µM [inhibitor, full curve, poor fit]
COC(=O)c1nc2n(n1)C(c1cc(OC)ccc1OC)C=C(c1ccc(Br)cc1)N2 (stereo not given) 11.2 µM [inhibitor, partial curve, poor fit]
COc1ccccc1N(C)S(=O)(=O)c1ccc(C(=O)Nc2ccc(N3CCOCC3)cc2)cc1 0.891 µM [inhibitor, full curve, poor fit]
COc1ccc(-c2nc3n(c2C)Cc2ccccc2-3)cc1 28.2 µM [inhibitor, single point]
O=C(CCN1CCN(CC(=O)Nc2ccccc2Cl)CC1)Nc1ccccc1F 7.08 µM [inhibitor, partial curve]
O=S(=O)(NCC(c1cccnc1)N1CCN(Cc2ccccc2)CC1)c1ccc(Cl)cc1 (stereo not given) 12.6 µM [inhibitor, single point]
COc1ccc(CNC(=O)c2ccc(-c3ccc(F)c(F)c3)c3ccoc23)cc1OC 28.2 µM [inhibitor, single point]
O=C(Cc1ccccc1F)Nc1cccc2cccnc12 11.2 µM [inhibitor, single point]
CCOc1ccc(NC(=O)c2ccc(NC(=S)NC3CCCCC3)cc2)cc1 3.55 µM [inhibitor, partial curve, poor fit]
c1ccc(-c2nnc(N3CCN(c4ccccc4)CC3)nc2-c2ccccc2)cc1 2 µM [inhibitor, full curve, poor fit]
O=c1oc2ccc(Cl)cc2nc1/C=C(\O)c1cccs1 15.8 µM [inhibitor, partial curve, poor fit]
Cc1ccc2occ(CC(=O)Nc3ccc(Cl)c(C(F)(F)F)c3)c2c1 11.2 µM [inhibitor, partial curve, poor fit]
COc1ccc(Cn2nnnc2C(c2cc3cc(C)cc(C)c3[nH]c2=O)N2CCOCC2)cc1 (stereo not given) 28.2 µM [inhibitor, single point]
O=S(=O)(NCCSc1ccc(Cl)cc1)c1ccc2c(c1)OCCO2 28.2 µM [inhibitor, single point]
Cc1ccc(C(=O)COC(=O)c2cn(-c3ccccc3)nc2-c2ccccc2)cc1[N+](=O)[O-] 22.4 µM [inhibitor, single point]
CCOC(=O)C1(Cc2cccc(OC)c2)CCN(Cc2cccc(OC)c2O)CC1 11.2 µM [inhibitor, partial curve, poor fit]
CC(=O)NC12CC3CC(C1)CC(C(=O)N1CCN(S(=O)(=O)c4cccc(C(F)(F)F)c4)CC1)(C3)C2 22.4 µM [inhibitor, partial curve, poor fit]
Cc1ccc(C(CNC(=O)Nc2cccc(C)c2)N2CCN(C)CC2)cc1 (stereo not given) 14.1 µM [inhibitor, partial curve, poor fit]
CCOC(=O)C1=C(CC)Nc2ccccc2N/C1=N\S(=O)(=O)c1cc(Br)ccc1Br 8.91 µM [inhibitor, partial curve, poor fit]
CCC(CC)C(=O)Nc1nnc(S(=O)(=O)N2c3ccccc3CC2C)s1 (stereo not given) 12.6 µM [inhibitor, partial curve, poor fit] and 6.31 µM [inhibitor, partial curve, poor fit]
CC(C)OC(=O)c1ccc(NC(=O)c2cncc(Br)c2)cc1 8.91 µM [inhibitor, partial curve, poor fit]
CN(C(=O)c1ccc2c(c1)N(Cc1ccc(F)cc1)C(=O)c1ccccc1S2(=O)=O)C1CCCCC1 10 µM [inhibitor, partial curve, poor fit]
CCC1([N+](=O)[O-])COC(C=Cc2ccccc2)OC1 (stereo not given) 28.2 µM [inhibitor, single point]
Clc1cccc(CSc2nnc(-c3ccccn3)n2Cc2ccco2)c1 11.2 µM [inhibitor, partial curve, poor fit]
COC(=O)c1ccccc1CC1Cc2cc3c(cc2C1=O)CCC3 (stereo not given) 28.2 µM [inhibitor, single point]
O=C(COC(=O)c1cccc(S(=O)(=O)NCc2ccccc2)c1)c1ccc2c(c1)OCCO2 28.2 µM [inhibitor, single point]
Cc1cccc(N(Cc2cc3ccc(C)cc3[nH]c2=O)S(=O)(=O)c2ccccc2)c1 20 µM [inhibitor, single point]
N#Cc1cn(CCOc2ccc(F)cc2)c2ccccc12 7.94 µM [inhibitor, partial curve, poor fit]
COC(=O)C1=C(C)NC(=S)N(C(C)=O)C1c1ccccc1 (stereo not given) 1.12 µM [inhibitor, full curve, poor fit]
CCOc1ccc(CCN2C(=O)C(=O)N([C@@H](CC(C)C)CN3CCC[C@@H]3CN3C(=O)C(=O)NC[C@@H]3Cc3ccccc3)C[C@@H]2CC(C)C)cc1 8.91 µM [inhibitor, partial curve, poor fit]
CCc1nc2ccc(C(=O)N(C)CC(=O)Nc3cccc(F)c3)cc2nc1CC 28.2 µM [inhibitor, single point]
OC(c1ccccc1)(c1nc(-c2cccc3cccnc23)cs1)C(F)(F)F (stereo not given) 11.2 µM [inhibitor, partial curve]
O=C(NCC1(c2ccccc2)CCCC1)c1cccc(Br)c1 3.55 µM [inhibitor, partial curve, poor fit]
COC(=O)c1ccc(NC(=O)Nc2ccccc2F)cc1 8.91 µM [inhibitor, single point]
Cc1ccc(-c2nc3ccccn3c2Nc2ccccc2)o1 14.1 µM [inhibitor, single point]
CCc1nc2ccc(C(=O)NCc3ccc(OC)cc3)cn2c1N(CCC(C)C)CCN(C)C 22.4 µM [inhibitor, single point]
COc1ccc(N2C(=O)CCSC23C(=O)N(Cc2ccc(F)cc2)c2ccccc23)cc1 (stereo not given) 11.2 µM [inhibitor, partial curve, poor fit]
O=C(CCCc1cccs1)N1CCN(S(=O)(=O)c2ccccc2Br)CC1 28.2 µM [inhibitor, single point]
CCc1ccc(-n2nc(CO)c(C(=O)NCc3cccnc3)n2)cc1 11.2 µM [inhibitor, single point]
O=C(c1ccc2c(c1)N(Cc1ccc(Cl)cc1)C(=O)c1ccccc1S2(=O)=O)N1CCN(Cc2ccccc2)CC1 12.6 µM [inhibitor, single point]
COC(=O)C1=C(C)NC(C)=C(C(=O)OCC2CCCO2)C1c1cccc(Cl)c1 (stereo not given) 10 µM [inhibitor, partial curve, poor fit]
Cc1cc(C)c(S(=O)(=O)N2CCCCC2CCNC(=O)C(=O)NCc2ccco2)c(C)c1 (stereo not given) 7.08 µM [inhibitor, partial curve, poor fit]
O=C(Nc1cccc(Cl)c1N1CCOCC1)c1cccs1 15.8 µM [inhibitor, single point]
O=C(COC(=O)c1cc(NS(=O)(=O)c2cccs2)ccc1O)Nc1ccccc1 5.01 µM [inhibitor, partial curve]
CCOC(=O)c1sc(N2C(=O)C(O)=C(C(=O)c3ccco3)C2c2ccc([N+](=O)[O-])cc2)nc1C (stereo not given) 28.2 µM [inhibitor, single point]
Cc1ccc(C(C)C)c(OCC(=O)N/N=C/c2cccn2C)c1 11.2 µM [inhibitor, partial curve, poor fit]
